# Data as given in PubChem BioAssay AID1476 (National Center for Advancing Translational Sciences (NCATS), 2009).
# Where “and” joins values, the source holds several entries; their conditions need not be identical. Equal values may be shown once. Screen size: about 200,000 compounds; about 4,500 (2.2%) were called active. This list was built around the results that the source calls inconclusive (neither active nor inactive); the mix of calls is not that of the screen. Calls come from the whole dose curve; as a rule, active = well fitted inhibition curve with a large enough effect; inconclusive = small, poorly fitted or top-dose-only effect, or effect the other way; inactive = flat fitted curve, though single readings scatter. Potencies beside an inconclusive call are fits to weak or partial responses and may not hold up.
# Target: Cruzipain (Trypanosoma cruzi) (UniProt P25779)
# Sequence of UniProt P25779 (P25779 whole entry, looked up): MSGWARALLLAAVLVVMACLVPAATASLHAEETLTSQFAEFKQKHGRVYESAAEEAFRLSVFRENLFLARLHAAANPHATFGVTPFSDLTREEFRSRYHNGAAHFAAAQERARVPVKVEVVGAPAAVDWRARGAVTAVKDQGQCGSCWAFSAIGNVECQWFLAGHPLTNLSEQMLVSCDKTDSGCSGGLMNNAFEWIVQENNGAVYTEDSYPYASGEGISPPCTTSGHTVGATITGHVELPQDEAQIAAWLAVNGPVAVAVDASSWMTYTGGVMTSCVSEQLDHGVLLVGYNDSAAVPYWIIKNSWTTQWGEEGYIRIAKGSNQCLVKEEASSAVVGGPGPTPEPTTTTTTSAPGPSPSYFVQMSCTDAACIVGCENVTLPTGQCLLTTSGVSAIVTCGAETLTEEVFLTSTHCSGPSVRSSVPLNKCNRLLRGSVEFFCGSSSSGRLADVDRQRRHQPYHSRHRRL
# Experiment: qHTS Assay for Promiscuous and Specific Inhibitors of Cruzain (without detergent); note: nearly all actives have a fitted effect of over 40% in size;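 for max response, negative = inhibition: plate controls were enzyme without inhibitor for no effect and buffer without enzyme for full effect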
# Conditions: purified cruzain, Z-FR-AMC fluorescence, no detergent
# Outline: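 Detergent-free condition (0.00005% Triton X-100) in acetate buffer pH 5.5 with DTT. 1.5 nM enzyme and compound were pre-mixed 15 min, then 2 uM Z-FR-AMC substrate added; reaction progress from fluorescence change between first and third reads (60 s).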
# Potency is the fitted concentration of half-maximal effect; tags give direction and shape of the fitted curve.
Structure (SMILES),Potency,"max response, negative = inhibition"
CCOc1ccc(CCNC(=O)C2CCN(c3nnc(-n4cccc4)s3)CC2)cc1,active: 15.8 µM,
CC(C)OC(=O)/C(=C\C=C\c1ccccc1)NC(=O)c1ccccc1,,inactive: -8.87%
O=C(CSc1nnc(Nc2ccccc2)s1)Nc1cccc(S(=O)(=O)N2CCCCC2)c1,"inconclusive: 39.8 µM [inhibitor, single point]",
O=C(Nc1ccccc1)N1CCC(c2nc(-c3ccc(S(=O)(=O)N4CCOCC4)cc3)no2)CC1,"inconclusive: 39.8 µM [activator, single point]",
COC(=O)[C@@]1(Cc2ccc(OC)cc2)[C@H]2c3cc(C(=O)N(C)C)n(CCc4ccc(O)c(OC)c4)c3C[C@H]2CN1C(=O)c1ccccc1,"inconclusive: 39.8 µM [activator, single point]",
Cc1ccc2c(=O)cc(C(=O)Nc3sc4c(c3C(=O)NCc3ccco3)CCC4)oc2c1,,inactive: -5.18%
Cc1ccc(SCc2cc(=O)[nH]c(/N=C(\N)Nc3cccc4ccccc34)n2)cc1,active: 31.6 µM,
O=C(Nc1nc2ccc(Cl)cc2s1)c1ccc(N2CCCCC2)c([N+](=O)[O-])c1,active: 5.01 µM,
COc1cc2c(=O)c(C(=O)c3ccc(C)c(C)c3)cn(Cc3ccccc3F)c2cc1OC,"inconclusive: 39.8 µM [activator, single point]",
Cn1c(=O)c2c(nc(N/N=C/c3ccc(OC(=O)c4ccco4)cc3)n2Cc2ccc(F)cc2)n(C)c1=O,"inconclusive: 39.8 µM [inhibitor, single point]",
Cc1ccc(-n2c(SCC(=O)Nc3ncc(Cl)cc3Cl)nc3ccccc32)cc1,active: 20 µM,
CCOC(=O)c1ccc(N2C(=O)c3[nH]nc(-c4ccc(C)cc4)c3C2c2ccc(O)c(OCC)c2)cc1 (stereo not drawn),"inconclusive: 39.8 µM [inhibitor, single point]",
CCc1ccc(CNC(=O)c2c3c(nc4ccccc24)C(=O)N(C2CCCCC2)C3)cc1,"inconclusive: 39.8 µM [inhibitor, single point]",
C#CCn1c(=NC(=O)c2cc(-c3cccs3)nc3ccccc23)sc2cc(S(N)(=O)=O)ccc21,"inconclusive: 39.8 µM [inhibitor, single point]",
CCOC(=O)c1oc2nc(C(C)C)c3c(c2c1N)CC(C)(C)OC3,"inconclusive: 20 µM [activator, single point]",
CCNc1ncc2nc(-c3ccc(F)cc3)c(=O)n(Cc3ccc(F)cc3)c2n1,,inactive: 9.65%
COCCNC(=O)c1ccc2c(=O)n(CCc3ccccc3)c(SCC(=O)CC(=O)OC)nc2c1,"inconclusive: 39.8 µM [activator, single point]",
CC(C)Cc1ccc(S(=O)(=O)N2CCC(c3ccncc3)CC2)cc1,"inconclusive: 39.8 µM [activator, single point]",
CCCn1c(=O)c2ccccc2n2c(SCCOc3ccc(OC)cc3)nnc12,"inconclusive: 39.8 µM [activator, single point]",
Cc1ccc(CNc2nc(-c3ccco3)nn2S(C)(=O)=O)cc1,,inactive: 1.7%
CC(C)CCOP(=O)(c1ccc(N(C)C)cc1)C(O)c1ccccc1F (stereo not drawn),"inconclusive: 25.1 µM [activator, single point]",

Structure (SMILES),Potency,"max response, negative = inhibition"
COc1ccc2[nH]cc(CCNc3ccnc(-c4ccc5c(c4)OCO5)n3)c2c1,"inconclusive: 25.1 µM [inhibitor, single point]",
COC(=O)NC(C(=O)OC)(C(=O)OC)c1ccccc1,,inactive: 2.78%
CCCN(Cc1cccs1)C(=O)Nc1cc(Cl)ccc1C,,inactive: 4.25%
C/C(=C\C1CCCCC1)C(NC(=O)c1cccnc1)c1ccc(-c2ccccc2)cc1 (stereo not drawn),"inconclusive: 39.8 µM [inhibitor, single point]",
Cc1ccc2[nH]c3c(=O)n(CC(=O)NCc4ccco4)ncc3c2c1,"inconclusive: 39.8 µM [inhibitor, single point]",
CC(=O)N1CCN(c2ccccc2NC(=O)COc2ccc(Cl)cc2Cl)CC1,"inconclusive: 39.8 µM [activator, single point]",
CCc1ccc2c(c1)C(c1ccc([N+](=O)[O-])cc1)=NNC(c1ccc(Br)cc1)=N2,active: 10 µM,
CCOC(=O)c1cnn(-c2ccc(C(=O)Nc3ccc(OC(F)(F)F)cc3)cc2)c1N,,inactive: -21.1%
CN(C)c1ccc(-c2nc(NCc3cccnc3)c3ccccc3n2)cc1,,inactive: -12.1%
CCc1nc2nc(C)cc(Nc3cc(Cl)ccc3C)n2n1,,inactive: -1.85%
CCOC(=O)N1CCN(S(=O)(=O)c2ccc(C(=O)Nc3nc4c(s3)CC(C)CC4)cc2)CC1 (stereo not drawn),"inconclusive: 7.94 µM [activator, full curve]",
COc1ccc(-c2noc(N(c3ccc(F)c(Cl)c3)c3nc(-c4ccc(OC)c(OC)c4)no3)n2)cc1OC,,inactive: -7.07%
COc1cc(-c2nc(S(=O)(=O)c3ccc(Br)cc3)c(N3CCOCC3)o2)cc(OC)c1OC,"inconclusive: 39.8 µM [activator, single point]",
COc1ccc(C)cc1NC(=O)C(OC(=O)c1cccc(S(=O)(=O)N(C)c2ccccc2)c1)c1ccccc1 (stereo not drawn),active: 7.94 µM,
CCOC(=O)c1[nH]c2ccc(OC)cc2c1NC(=S)N1CCN(c2ccccc2)CC1,"inconclusive: 25.1 µM [activator, single point]",
C=CCn1c(SCc2ccc(C(=O)Nc3nccs3)cc2)nnc1-c1ccc(C)c(Cl)c1,"inconclusive: 31.6 µM [inhibitor, single point]",
CCOc1ccc(-c2cn(S(=O)(=O)c3cccc4nsnc34)nc2N)cc1,"inconclusive: 31.6 µM [inhibitor, single point]",
Cc1ccc(N(CC(=O)NCCc2ccccc2C)S(=O)(=O)N(C)C)cc1,,inactive: -1.61%
Cc1cc(C)cc(N(CCC(=O)O)S(=O)(=O)c2ccc3ccccc3c2)c1,"inconclusive: 39.8 µM [activator, single point]",
COc1ccc(-c2nnc(SC(C)C#N)o2)cc1 (stereo not drawn),,inactive: 2.59%
COc1cccc(C(=O)CN2C(=O)C(C)(C)Oc3ccc(C(=O)N4CCCCCC4)cc32)c1,"inconclusive: 25.1 µM [activator, partial curve]",

Structure (SMILES),Potency,"max response, negative = inhibition"
CCOC(=O)c1cnc2c(C)c(Cl)ccc2c1NCCc1ccc(OC)c(OC)c1,"inconclusive: 39.8 µM [activator, single point]",
Cn1cccc1C(=O)N1CCC2(CC1)CCN(c1ccc(-c3ccccc3)cc1)CC2,"inconclusive: 39.8 µM [activator, single point]",
COc1nn(CC(=O)N2N=C(C(F)F)CC2(O)C(F)F)cc1[N+](=O)[O-] (stereo not drawn),"inconclusive: 6.31 µM [activator, single point]",
CCC(CC)=NNc1cccc([N+](=O)[O-])c1,"inconclusive: 25.1 µM [inhibitor, single point]",
CC1CN(c2nc3c(c(=O)n(C)c(=O)n3C)n2Cc2c(F)cccc2Cl)CC(C)O1 (stereo not drawn),"inconclusive: 25.1 µM [activator, single point]",
COc1ccc(-c2noc(N3CCC(C(=O)N4CCN(c5ccccc5OC)CC4)CC3)n2)cc1,"inconclusive: 15.8 µM [activator, partial curve]",
COC(=O)c1ccc(C(NC(=O)OCc2ccccc2)/C(=C/[C@@H](C)C(=O)NCCF)c2cccnc2)cc1 (stereo partly drawn),"inconclusive: 39.8 µM [activator, single point]",
COc1ccc(S(=O)(=O)Nc2ccccc2OC)cc1NC(=O)CC1CC2CCC1C2 (stereo not drawn),"inconclusive: 25.1 µM [inhibitor, single point]",
Cc1cccc(C2=NN(c3ccccc3)[C@@H](C(=O)N3CCOC3=O)[C@@H]2c2ccc(F)cc2)c1,"inconclusive: 39.8 µM [inhibitor, single point]",
Cc1nc2ncnn2c(C)c1CCC(=O)Nc1ccc(S(=O)(=O)N2CCCCCC2)cc1,"inconclusive: 39.8 µM [activator, single point]",
CCC(=O)Nc1cccc(NC(=O)CSc2nnnn2C)c1,,inactive: -1.39%
CC1(C)CC(=O)c2cc(-c3nc(-c4ccccc4)cs3)c(=O)[nH]c2C1,,inactive: -3.24%
Cc1ccc(NC(=O)C2CCN(S(=O)(=O)c3c(C)noc3C)CC2)cc1,,inactive: 11.2%
O=C1OCCN1C(=O)[C@H]1[C@H](c2ccc([N+](=O)[O-])cc2)C(c2ccc(F)cc2)=NN1c1ccc(Br)cc1,active: 8.91 µM,
C[C@]1(c2ccccc2)O[C@@H]2C[C@@H]3[C@@H]4CCC5=CC(=O)C=C[C@@]5(C)[C@]4(F)[C@H](O)C[C@]3(C)[C@@]2(C(=O)CO)O1,,inactive: 2.3%
CCC1CCCCN1S(=O)(=O)c1ccc(NC(=O)c2cc(=O)c3c(C)cc(C)cc3o2)cc1 (stereo not drawn),"inconclusive: 31.6 µM [inhibitor, single point]",
CC(C)(C)C(=O)Nc1ccc(C(=O)N/N=C/c2ccccc2OC(=O)c2ccc(Cl)cc2Cl)cc1,"inconclusive: 39.8 µM [inhibitor, single point]",
Cc1ccc(CSC2=Nc3sccc3C3=NC(=O)CN23)cc1,active: 20 µM,
COc1cc(/C=C2/C(=O)NN(c3cccc(F)c3)C2=O)ccc1OC(=O)c1ccco1,"inconclusive: 31.6 µM [activator, single point]",
C=C1CCC(O)C/C1=C\C=C1/CCCC2(C)C1CCC2C(C)CCCC(C)C (stereo not drawn),"inconclusive: 15.8 µM [activator, full curve]",
CN1CSC(=S)N(C)C1,,inactive: 2.66% and inactive: -3.19%
